Experimental data reported in the supplement of paper PMC6206098.
± gives the uncertainty stated by the source. The sequences are guide strands of siRNAs; only the seed at positions 2 to 7 varies.

Experiments:
[1] = system: 3LL; experiment: cell viability relative to siNT1 control; higher = less toxic; settings: concentration: 10 nM; 96 h; Mus musculus;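 note: Luminescence-based viability of cells reverse transfected in 384-well plates with lipid-complexed siRNAs built on a non-toxic 19mer backbone whose passenger strand carries 2′-O-methyl groups at positions 1 and 2, triplicates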
Procedure: (§1)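 Arrayed screen of 4096 siRNA duplexes, each carrying one of all possible 6mer seeds at guide-strand positions 2-7 in a fixed neutral 19mer scaffold (constant flanks: U at position 1, then ACAUGUAAACCA, plus a 3' AA overhang). The passenger strand is 2'-O-methylated at positions 1-2 so only the guide strand loads into RISC. Duplexes were reverse-transfected at 10 nM with RNAiMAX in triplicate in 384-well plates; viability was read by CellTiter-Glo ATP content 96 h after transfection. Values are % viability normalised to lipid-only wells (HeyA8, H460, M565) or to siNT1 (3LL).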

[2] = system: H460; experiment: cell viability relative to lipid-only control; HeyA8 human ovarian and H460 human lung cancer; M565 mouse liver and 3LL mouse lung cancer; siNT1 is a non-toxic control siRNA; higher = less toxic; settings: concentration: 10 nM; 96 h; Homo sapiens
Procedure: as §1

[3] = system: HeyA8; experiment: as above; settings: concentration: 10 nM; 96 h; Homo sapiens
Procedure: as §1

[4] = system: M565; experiment: as above; settings: concentration: 10 nM; 96 h; Mus musculus
Procedure: as §1
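Throughout, for cell viability relative to lipid-only control: reverse lipid transfection in 384-well plates, in triplicate, of duplexes on a non-toxic 19mer backbone with passenger strand 2′-O-methylated at positions 1 and 2, luminescence viability read-out.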

| Sequence | cell viability [1] | cell viability [2] | cell viability [3] | cell viability [4] |
| --- | --- | --- | --- | --- |
| UAUCCUGACAUGUAAACCAAA | 107 ± 3.4% | 94.7 ± 8.5% | 97.3 ± 6.5% | 91.1 ± 4.1% |
| UAUCCUUACAUGUAAACCAAA | 76.7 ± 13% | 60.5 ± 10% | 24.8 ± 4.9% | 90.4 ± 10% |
| UAUCGAAACAUGUAAACCAAA | 116 ± 12% | 81.8 ± 19% | 97.9 ± 6.5% | 103 ± 21% |
| UAUCGACACAUGUAAACCAAA | 115 ± 14% | 91.9 ± 4.3% | 92.3 ± 2.6% | 75.6 ± 8.4% |
| UAUCGAGACAUGUAAACCAAA | 125 ± 13% | 105 ± 4.7% | 96.8 ± 2.6% | 110 ± 12% |
| UAUCGAUACAUGUAAACCAAA | 95.4 ± 21% | 114 ± 12% | 102 ± 7.5% | 89.5 ± 11% |
| UAUCGCAACAUGUAAACCAAA | 117 ± 11% | 91.9 ± 6% | 101 ± 3.2% | 102 ± 20% |
| UAUCGCCACAUGUAAACCAAA | 17.5 ± 3.4% | 80.2 ± 2.3% | 103 ± 11% | 58.2 ± 5.9% |
| UAUCGCGACAUGUAAACCAAA | 117 ± 9.2% | 90 ± 4.4% | 106 ± 8.5% | 96.5 ± 3.7% |
| UAUCGCUACAUGUAAACCAAA | 61.5 ± 7.9% | 47 ± 5.8% | 81.8 ± 11% | 75.7 ± 5.8% |
| UAUCGGAACAUGUAAACCAAA | 75.3 ± 6.2% | 87.7 ± 14% | 82.3 ± 4.1% | 59.5 ± 20% |
| UAUCGGCACAUGUAAACCAAA | 72.7 ± 9.3% | 69.7 ± 6.6% | 77.1 ± 7.2% | 65.1 ± 20% |
| UAUCGGGACAUGUAAACCAAA | 91 ± 5.9% | 92.7 ± 18% | 101 ± 9% | 52.2 ± 13% |
| UAUCGGUACAUGUAAACCAAA | 72.3 ± 2.5% | 99.1 ± 12% | 80.5 ± 10% | 56.5 ± 12% |
| UAUCGUAACAUGUAAACCAAA | 122 ± 20% | 112 ± 14% | 95.4 ± 8.9% | 94 ± 6.9% |
| UAUCGUCACAUGUAAACCAAA | 62.9 ± 8% | 95.7 ± 14% | 93.6 ± 6.5% | 50.7 ± 22% |
| UAUCGUGACAUGUAAACCAAA | 114 ± 17% | 91.2 ± 11% | 88.7 ± 6.2% | 73.1 ± 18% |
| UAUCGUUACAUGUAAACCAAA | 115 ± 16% | 108 ± 7.5% | 97.6 ± 2.4% | 63.7 ± 11% |
| UAUCUAAACAUGUAAACCAAA | 117 ± 15% | 49.2 ± 2.9% | 104 ± 13% | 104 ± 8.4% |
| UAUCUACACAUGUAAACCAAA | 83.9 ± 9.7% | 61 ± 2.2% | 94.3 ± 4.9% | 97.5 ± 3.5% |
| UAUCUAGACAUGUAAACCAAA | 111 ± 11% | 38.4 ± 2.8% | 89.8 ± 2.4% | 89.3 ± 14% |
| UAUCUAUACAUGUAAACCAAA | 120 ± 14% | 63.5 ± 5.4% | 99.1 ± 7.5% | 94.3 ± 13% |
| UAUCUCAACAUGUAAACCAAA | 100 ± 4.9% | 34.2 ± 2.5% | 83.3 ± 3.9% | 95.4 ± 22% |
| UAUCUCCACAUGUAAACCAAA | 31.4 ± 1.5% | 59.7 ± 3.8% | 44.5 ± 8.3% | 48.5 ± 11% |
| UAUCUCGACAUGUAAACCAAA | 102 ± 7.3% | 47.8 ± 5% | 93.3 ± 2.6% | 92.4 ± 26% |
| UAUCUCUACAUGUAAACCAAA | 64.6 ± 2.7% | 37.7 ± 3.2% | 56.8 ± 6.3% | 40 ± 9.6% |
| UAUCUGAACAUGUAAACCAAA | 108 ± 10% | 63.1 ± 6.1% | 96.2 ± 9.2% | 102 ± 14% |
| UAUCUGCACAUGUAAACCAAA | 33.4 ± 1.8% | 43.8 ± 3.7% | 80.5 ± 1.6% | 46.6 ± 9.3% |
